T1: GFP-RGS19 (UniProt P49795 1-217)
T1 construct: RGS19, regulator of G protein signaling 19; Plasmid published earlier; also called GFP-tagged RGS19 construct; source: HEK293T, transfected, in lysate
T1 sequence (looked up): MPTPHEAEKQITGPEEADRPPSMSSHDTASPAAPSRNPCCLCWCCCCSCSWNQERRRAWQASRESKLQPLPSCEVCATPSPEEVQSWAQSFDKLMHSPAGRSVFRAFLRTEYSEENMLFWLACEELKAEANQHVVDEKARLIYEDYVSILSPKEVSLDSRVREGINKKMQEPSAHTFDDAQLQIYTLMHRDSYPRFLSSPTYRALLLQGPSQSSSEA


Molecular target: T1, GFP-RGS19
Experiment: co-IP; HEK293T co-transfected with the GFP-tagged construct and non-tagged Gαo variants; IP of the GFP fusion with a recombinant GST-tagged nanobody against GFP; Western blot with antibodies against Gαo and GFP; blots quantified with ImageJ
Details: partners not purified

Binder | percent of the binding of wild-type [%]
Gαo T327R (non-tagged) (natural protein, Gαo (GNAO1) with the patient variant p.Thr327Arg (c.980C>G), introduced by site-directed mutagenesis into the non-tagged Gαo plasmid; De novo patient variant reported earlier; also called p.Thr327Arg; source: HEK293T, transfected (in lysate for co-IP; in cells for BRET)) not shown | ~50
Gαo T327K (non-tagged) (natural protein, Gαo (GNAO1) with the patient variant p.Thr327Lys (c.980C>A), introduced by site-directed mutagenesis into the non-tagged Gαo plasmid; De novo patient variant; also called p.Thr327Lys; source: HEK293T, transfected (in lysate for co-IP; in cells for BRET)) not shown | ~60
